Data on three compounds can be found in patent US11542275B2, “Substituted imidazolidin-2-one derivatives as PRMT5 inhibitors” (Aurigene Discovery Technologies Limited, priority 2018, dated 2023).

The target of the assay is PRMT5/MEP50 Complex (Homo sapiens (Human), UniProt O14744). Kind of assay: PRMT5 inhibition based on TR-FRET assay. The format is biochemical. Particulars: 32 nM PRMT5:MEP50 complex, 50 nM Histone-H4 peptide, 1 μM SAM, 90 minutes at room temperature. The source says:
Protein arginine methyltransferase 5 (PRMT5) is a type II arginine methyltransferase that catalyze mono- and symmetric demethylation on arginine residues of histone or non-histone proteins in presence of S-adenosylmethionine (AdoMet or SAM) a cofactor responsible for donating the methyl group. PRMT5 is reported to be overexpressed in several human cancers. To identify compounds that inhibit the PRMT5 and decrease its activity, a TR-FRET based assay has been established. Time-resolved fluorescence resonance energy transfer (TR-FRET) HTS assays are homogeneous proximity assays where the interaction of two dye-labeled binding partners is detected by the energy transfer between a donor and an acceptor dye, and the subsequent light emission by the acceptor dye. PRMT5 catalyzes Histone H4 peptide which is biotin tagged to the Lysine amino acid at carboxyl end, in presence of S-adenosyl-1-methionine (SAM) to methylate the peptide. The antibody specific to mono methylated H4 peptide (H4R3) with Ig conjugate binds to the methylated peptide, indirectly binding to the Europium lanthanide. SureLight Allophycocyanin-Streptavidin binds to the biotin tag of the peptide, therefore accepting the energy transferred from the Europium lanthanide. This energy transfer between Europium to SureLight Allophycocyanin is a direct measure of the activity/inhibition of the PRMT5 enzyme.
Assay buffer: 20 mM BICINE (pH 7.6), 25 mM NaCl, 2 mM DTT, 0.01% Tween-20 and 0.01% BSA.
The compound dilutions were prepared as 7.5% DMSO stock solutions in assay buffer. To 2 μL (7.5×) of test compound, 5 μL of PRMT5 enzyme prepared in assay buffer (Final concentration of 32 nM in 15 μL reaction volume) was added and allowed for 30 minutes pre-incubation time in a white polystyrene 384-well plate at room temperature. […] The plates were then read on Victor-3 with Excitation at 340 nm and Emissions collected at 615 and 665 nm in TR-FRET protocol. […]
For orientation: In TR-FRET formats the signal depends on donor and acceptor labels being close together.

What is called IC50 is the concentration that gives 50% inhibition. Higher therefore signals weaker potency in that assay.

The compound `COc1ccc(-c2ccc(CN3CCN(C[C@H](O)CN4CCc5ccccc5C4)C3=O)nc2)cn1` [Compound 62, (R)-1-(3-(3,4-dihydroisoquinolin-2(1H)-yl)-2-hydroxypropyl)-3-((6′-methoxy-[3,3′-bipyridin]-6-yl)methyl)imidazolidin-2-one] registered an IC50 of 44 nM. This counts as double-digit nanomolar. In the case of `O=C1N(Cc2ccc(C3CC4CCC(C3)O4)nc2)CCN1C[C@H](O)CN1CCc2ccccc2C1` (stereo partly drawn) [Compound 74, 1-((6-(8-oxabicyclo[3.2.1]octan-3-yl)pyridin-3-yl)methyl)-3-((R)-3-(3,4-dihydroisoquinolin-2(1H)-yl)-2-hydroxypropyl)imidazolidin-2-one] it was 26 nM. In the case of `CC(=O)N1CC(c2ccc(CN3CCN(C[C@H](O)CN4CCc5ccccc5C4)C3=O)nc2)C1` [Compound 79, (R)-1-((5-(1-acetylazetidin-3-yl)pyridin-2-yl)methyl)-3-(3-(3,4-dihydroisoquinolin-2(1H)-yl)-2-hydroxypropyl)imidazolidin-2-one] it was 41 nM.
